In patent US20220242944A1:
Values belong to the binder of their own block, whether it stands above or below them.

Key:
[1] = molecular target: recombinant human PDGF-D (human); assay: Biacore premix competition: CR002 (mouse Fc, 1.6-200 nM) pre-incubated with 10 nM hPDGF-D, injected over human PDGFR beta-hIgG1 captured by anti-human Fc on a CM4 chip; response at 95 s; blocked ligand-receptor pair hPDGF-D / PDGFR beta
[2] = molecular target: recombinant human PDGF-D (human); assay: SPR (Biacore T200), footnote to the starred cells of Table 3; unit inferred; CR002-F1332m, starred cell r12c3
[3] = molecular target: recombinant human PDGF-B (human) (UniProt P01127); assay: SPR (Biacore T200), antibody captured by anti-human Fc, antigen as analyte, 25 degrees C, pH 7.4, 1:1 model
Sequence of UniProt P01127 (P01127 82-190 limits assumed): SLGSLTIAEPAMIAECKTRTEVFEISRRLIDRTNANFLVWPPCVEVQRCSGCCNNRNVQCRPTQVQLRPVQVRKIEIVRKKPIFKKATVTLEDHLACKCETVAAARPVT

[4] = molecular target: recombinant human PDGF-D (human); assay: SPR (Biacore T200), antibody captured by anti-human Fc, antigen as analyte, 25 degrees C, pH 7.4, 1:1 model; footnote *: KD cannot be uniquely determined
[5] = molecular target: recombinant human PDGF-D (human); assay: SPR (Biacore T200), footnote to the starred cells of Table 3; unit inferred; bispecific CPR001GL/xCR002-SG181v14hk, starred cell r14c3

IC50 (read off the curve) [1]: 20 nM
B1: Anti-PDGF-D antibody (CR002) with mouse Fc (antibody, V domains shown)
VH: QVQLVQSGAEVKKPGASVKVSCKASGYTFTSYDINWVRQATGQGLEWMGWINPNSGNTDYAQKFQGRVTMTRDTSISTAYMELSSLRSEDTAIYYCVRGFGYSYNYDYYYGMDVWGQGTTVTVSS
VL: [omitted - about 100 residues]SFGQGTKLEIK

koff [2]: < 1e-05 s⁻¹
B2: CR002-F1332m (antibody, V domains shown)
VH: B1 VH
VL: [omitted - about 100 residues]SFGQGTKLEIK

Kd [3]: 0.0211 nM | Kd [4]: 0.000534 nM | koff [5]: < 1e-05 s⁻¹
B3: CPR001GL/xCR002-SG181v14hk (bispecific antibody, V domains shown)
VH 1: EVQLLESGGGLVQPGGSLRLSCAASGFTFSSYAMSWVRQAPGKGLEWVSYISDDGSLKYYADSVKGRFTISRDNSKNTLYLQMNSLRAEDTAVYYCAKHPYWYGGQLDLWGQGTLVTVSS
VL 1: SYELTQPPSVSVSPGQTASITCSGDSLGSYFVHWYQQKPGQSPVLVIYDDSNRPSGIPERFSGSNSGNTATLTISGTQAMDEADYYCSAFTHNSDVFGGGTKLTVL
VH 2: B1 VH
VL 2: [omitted - about 100 residues]SFGQGTKLEIK
